# Reference: the supplement of paper PMC4604168 (melanoma cell lines)
# Some of the results follow. Repeats are few or missing, and single values can be far off.
# Test system: MeWo
# Experiment: cell count relative to DMSO control; melanoma cells; higher = more viable cells
# Details: library dose: low library concentration; 72 h
# 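Note: cell number obtained by counting DAPI-stained nuclei in high-throughput microscope images with image analysis software, screen run in 1,536-well plates.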
row,Compound,cell count [%]
1,"CO[C@H]1C[C@@H]2CC[C@@H](C)[C@@](O)(O2)C(=O)C(=O)N2CCCC[C@H]2C(=O)O[C@H]([C@H](C)C[C@@H]2CC[C@@H](OCCO)[C@H](OC)C2)CC(=O)[C@H](C)/C=C(\C)[C@@H](O)[C@@H](OC)C(=O)[C@H](C)C[C@H](C)/C=C/C=C/C=C/1C [everolimus] + COCC[n+]1c2c(n(Cc3cnccn3)c1C)C(=O)c1ccccc1C2=O [YM155] (first compound 0.02 µM, partner dose 0.0004 µM)",69.9
2,"CO[C@H]1C[C@@H]2CC[C@@H](C)[C@@](O)(O2)C(=O)C(=O)N2CCCC[C@H]2C(=O)O[C@H]([C@H](C)C[C@@H]2CC[C@@H](OCCO)[C@H](OC)C2)CC(=O)[C@H](C)/C=C(\C)[C@@H](O)[C@@H](OC)C(=O)[C@H](C)C[C@H](C)/C=C/C=C/C=C/1C [everolimus] + C=CCNC1=C2C[C@@H](C)C[C@H](OC)[C@H](O)[C@@H](C)/C=C(\C)[C@H](OC(N)=O)[C@@H](OC)/C=C\C=C(/C)C(=O)NC(=CC1=O)C2=O [Tanespimycin] (first compound 0.02 µM, partner dose 0.002 µM)",67
3,"Nc1nc(F)nc2c1ncn2[C@@H]1O[C@H](CO)[C@@H](O)[C@@H]1O [fludarabine] + Cn1nnc2c(C(N)=O)ncn2c1=O [temozolomide] (first compound 0.2 µM, partner dose 2 µM)",27.5
4,"CC(=O)c1c(C)c2cnc(Nc3ccc(N4CCNCC4)cn3)nc2n(C2CCCC2)c1=O [palbociclib] + O=S(=O)(c1ccccc1)N(CC(F)(F)F)c1ccc(C(O)(C(F)(F)F)C(F)(F)F)cc1 [T0901317] (first compound 0.04 µM, partner dose 1.4 µM)",79.9
5,"CO[C@H]1C[C@@H]2CC[C@@H](C)[C@@](O)(O2)C(=O)C(=O)N2CCCC[C@H]2C(=O)O[C@H]([C@H](C)C[C@@H]2CC[C@@H](OCCO)[C@H](OC)C2)CC(=O)[C@H](C)/C=C(\C)[C@@H](O)[C@@H](OC)C(=O)[C@H](C)C[C@H](C)/C=C/C=C/C=C/1C [everolimus] + CCCS(=O)(=O)Nc1ccc(F)c(C(=O)c2c[nH]c3ncc(Cl)cc23)c1F [PLX4720] (first compound 0.02 µM, partner dose 0.08 µM)",67.9
6,"Nc1ncn([C@H]2C[C@H](O)[C@@H](CO)O2)c(=O)n1 [decitabine] + Cn1cncc1[C@@](N)(c1ccc(Cl)cc1)c1ccc2c(c1)c(-c1cccc(Cl)c1)cc(=O)n2C [tipifarnib] (first compound 0.1 µM, partner dose 0.01 µM)",106
7,"CO[C@H]1C[C@@H]2CC[C@@H](C)[C@@](O)(O2)C(=O)C(=O)N2CCCC[C@H]2C(=O)O[C@H]([C@H](C)C[C@@H]2CC[C@@H](OCCO)[C@H](OC)C2)CC(=O)[C@H](C)/C=C(\C)[C@@H](O)[C@@H](OC)C(=O)[C@H](C)C[C@H](C)/C=C/C=C/C=C/1C [everolimus] + Nc1ccn([C@@H]2O[C@H](CO)[C@@H](O)C2(F)F)c(=O)n1 [gemcitabine] (first compound 0.02 µM, partner dose 0.0004 µM)",68
8,"CC(=O)O[C@@]12CO[C@@H]1C[C@H](O)[C@@]1(C)C(=O)[C@H](O)C3=C(C)[C@@H](OC(=O)[C@H](O)[C@@H](NC(=O)OC(C)(C)C)c4ccccc4)C[C@@](O)([C@@H](OC(=O)c4ccccc4)[C@H]21)C3(C)C [Docetaxel] + COc1cc2ncnc(Nc3ccc(Oc4ccccc4)cc3)c2cc1OC [SrcI1] (first compound 0.0001 µM, partner dose 2 µM)",38.9
9,"CO[C@H]1C[C@@H]2CC[C@@H](C)[C@@](O)(O2)C(=O)C(=O)N2CCCC[C@H]2C(=O)O[C@H]([C@H](C)C[C@@H]2CC[C@@H](OCCO)[C@H](OC)C2)CC(=O)[C@H](C)/C=C(\C)[C@@H](O)[C@@H](OC)C(=O)[C@H](C)C[C@H](C)/C=C/C=C/C=C/1C [everolimus] + CC(C)CCN1c2nc(Nc3cc(F)c(O)c(F)c3)ncc2N(C)C(=O)C1C [BID1870] (first compound 0.02 µM, partner dose 0.2 µM)",67.2
